Results from publication PMC4336329 (PLoS ONE, 2015).
Hit rate of the full screen: of about 310,000 compounds, about 14,000 (4.5%) showed an effect of 50% or more. The effect is printed as a negative number. The list shows a part of the results.
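Also: peak tail current of the secondary pulse compared with the same well before compound.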

The compounds below were run against human ether-à-go-go-related gene (hERG) potassium channel (human, UniProt Q12809) (assay: primary screen, population patch clamp on CHO cells stably expressing hERG).
human ether-à-go-go-related gene (hERG) potassium channel, sequence (Q12809 whole entry, looked up): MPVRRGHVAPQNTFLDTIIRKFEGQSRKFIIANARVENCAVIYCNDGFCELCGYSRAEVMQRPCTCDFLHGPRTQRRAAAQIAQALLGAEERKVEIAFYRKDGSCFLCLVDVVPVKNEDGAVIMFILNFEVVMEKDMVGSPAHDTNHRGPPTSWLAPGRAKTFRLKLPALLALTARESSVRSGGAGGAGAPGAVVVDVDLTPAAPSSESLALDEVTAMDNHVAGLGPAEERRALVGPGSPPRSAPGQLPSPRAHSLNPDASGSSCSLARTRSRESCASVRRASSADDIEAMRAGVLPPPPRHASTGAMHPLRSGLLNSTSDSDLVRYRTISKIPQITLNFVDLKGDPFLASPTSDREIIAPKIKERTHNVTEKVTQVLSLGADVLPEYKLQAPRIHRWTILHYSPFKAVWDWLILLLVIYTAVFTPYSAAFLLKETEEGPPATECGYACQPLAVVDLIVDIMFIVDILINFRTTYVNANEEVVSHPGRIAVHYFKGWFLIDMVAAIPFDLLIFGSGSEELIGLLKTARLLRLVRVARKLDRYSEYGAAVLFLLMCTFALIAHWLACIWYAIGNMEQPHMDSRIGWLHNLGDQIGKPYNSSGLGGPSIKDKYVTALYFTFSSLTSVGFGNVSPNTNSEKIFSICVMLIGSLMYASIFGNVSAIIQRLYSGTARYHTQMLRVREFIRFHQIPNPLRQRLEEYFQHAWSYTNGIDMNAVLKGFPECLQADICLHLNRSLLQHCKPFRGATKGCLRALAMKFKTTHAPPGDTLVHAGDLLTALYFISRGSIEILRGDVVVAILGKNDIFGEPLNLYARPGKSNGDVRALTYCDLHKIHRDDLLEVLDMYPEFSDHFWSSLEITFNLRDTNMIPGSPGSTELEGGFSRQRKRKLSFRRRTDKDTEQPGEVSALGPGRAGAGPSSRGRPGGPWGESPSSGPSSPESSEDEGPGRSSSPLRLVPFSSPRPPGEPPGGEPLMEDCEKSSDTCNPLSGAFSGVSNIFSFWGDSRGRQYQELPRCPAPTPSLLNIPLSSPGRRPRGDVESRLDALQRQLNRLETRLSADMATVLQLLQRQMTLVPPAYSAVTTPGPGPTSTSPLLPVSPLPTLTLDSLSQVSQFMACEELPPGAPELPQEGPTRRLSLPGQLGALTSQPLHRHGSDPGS
For CCCCC(=O)Nc1ccccc1CC, the “hERG current change (%, negative = inhibition) at 10uM” value was -5.37%. In the case of CCCn1cc2c(c1-c1cccc(C)c1)c(=O)n(C)c(=O)n2C, the “hERG current change (%, negative = inhibition) at 10uM” value is reported as -4.1%. For CCCCNC(C(=O)Nc1ccc(Cl)c([N+](=O)[O-])c1)c1ccccc1.O=C(O)C(=O)O (stereo not shown), the “hERG current change (%, negative = inhibition) at 10uM” value was -2.78%. With CCC(C)NC(=O)c1ccccc1NS(=O)(=O)c1ccc(OC)c(OC)c1 (stereo not shown) the “hERG current change (%, negative = inhibition) at 10uM” value was 11%. CCCn1c2ccccc2c2cnn(CC(=O)NCCN(CC)CC)c(=O)c21 was tested, and the “hERG current change (%, negative = inhibition) at 10uM” value was -66.6%. Cc1ccn2c(=O)nc(SCC(=O)N3CCCc4ccccc43)nc2c1 was tested, and the “hERG current change (%, negative = inhibition) at 10uM” value was -5.03%. For COc1ccc(C(=O)CSc2nnc(-c3ccc(C)cc3)o2)cc1, the “hERG current change (%, negative = inhibition) at 10uM” value was -0.0747%. In the case of O=C(O)CCn1c(SCCOc2ccccc2)nc2ccccc21, the “hERG current change (%, negative = inhibition) at 10uM” value is reported as 10.7%. In the case of CCCN1C(=O)C2C(C(=O)Nc3cccc(OC)c3)C3C=CC2(O3)C1C(=O)NC1CCCCC1 (stereo not shown), the “hERG current change (%, negative = inhibition) at 10uM” value is reported as 8.31%. In the case of CCSc1nc2c(c(=O)n(C)c(=O)n2C)n1Cc1ccc(Cl)cc1, the “hERG current change (%, negative = inhibition) at 10uM” value is reported as -17.5%. In the case of O=C(Cn1c(=O)c2sccc2n(Cc2cccc([N+](=O)[O-])c2)c1=O)NCCc1ccccc1, the “hERG current change (%, negative = inhibition) at 10uM” value is reported as -19.4%. For Cc1ccc(S(=O)(=O)NCCC(=O)Nc2cccc(Cl)c2)cc1, the “hERG current change (%, negative = inhibition) at 10uM” value was 4.65%. NC(=S)N1OC[C@@H]2COc3ccc4ccccc4c3[C@@H]21 was tested, and the “hERG current change (%, negative = inhibition) at 10uM” value was 4.27%. COc1ccc(CC(=O)Nc2ccc(C(=O)O)cc2NC(=O)Cc2ccc(OC)cc2)cc1 was tested, and the “hERG current change (%, negative = inhibition) at 10uM” value was 14%. Cc1noc(C)c1COC(=O)COc1ccc2c(C)cc(=O)oc2c1 was tested, and the “hERG current change (%, negative = inhibition) at 10uM” value was -7.08%. In the case of O=C(CCNS(=O)(=O)c1cccc2nsnc12)NCc1cccs1, the “hERG current change (%, negative = inhibition) at 10uM” value is reported as 0.101%. CNC(=O)N(O)C1N(c2ccccc2)C(=S)SC1(C)C (stereo not shown) was tested, and the “hERG current change (%, negative = inhibition) at 10uM” value was 11.6%. Cc1ccccc1Cn1c2ccccc2c2cnn(CC(=O)NCc3ccccn3)c(=O)c21 was tested, and the “hERG current change (%, negative = inhibition) at 10uM” value was 18.1%. For Cc1nc2nc(SCC(=O)c3ccccc3)[nH]c2cc1Br, the “hERG current change (%, negative = inhibition) at 10uM” value was 8.98%. With COc1ccc(-c2csc(-c3[nH]cnc3N)n2)cc1 the “hERG current change (%, negative = inhibition) at 10uM” value was -17.7%. For Cc1ccnc(NC(=O)c2cc3ccccc3oc2=O)c1, the “hERG current change (%, negative = inhibition) at 10uM” value was 8.47%. CCN1CCN(c2cc(C)c3cc(NC(=S)N4CCCC(C)C4)ccc3n2)CC1 (stereo not shown) was tested, and the “hERG current change (%, negative = inhibition) at 10uM” value was -51.3%. O=C(CCN1C(=O)c2ccccc2C1=O)Nc1cc(F)ccc1F was tested, and the “hERG current change (%, negative = inhibition) at 10uM” value was 0.799%. In the case of COC(=O)c1ccc2c(=O)[nH]c(COC(=O)c3c(-c4ccccc4)noc3C)nc2c1, the “hERG current change (%, negative = inhibition) at 10uM” value is reported as -1.82%. For COc1ccc(C(=O)NNC(=O)C(=O)NCc2ccccc2)cc1, the “hERG current change (%, negative = inhibition) at 10uM” value was 13.8%. For COCCNC(=S)N1CCN(Cc2ccc3c(c2)OCO3)CC1, the “hERG current change (%, negative = inhibition) at 10uM” value was 5.87%. CCn1cnc2c(oc3ccccc32)c1=O was tested, and the “hERG current change (%, negative = inhibition) at 10uM” value was 18.3%. For Cc1cccc(NC(=O)CSc2n[nH]c(-c3ccncc3)n2)c1, the “hERG current change (%, negative = inhibition) at 10uM” value was -0.573%. With COc1cc(C(=O)O)ccc1OCc1ccncc1 the “hERG current change (%, negative = inhibition) at 10uM” value was 14.1%. For Cc1c(C=O)c2ccccc2n1CCOc1ccccc1F, the “hERG current change (%, negative = inhibition) at 10uM” value was 6.67%. In the case of CCOC(=O)N1CCC(NC(=O)c2ccc(CS(=O)c3cccc(C)c3)o2)CC1 (stereo not shown), the “hERG current change (%, negative = inhibition) at 10uM” value is reported as 8.06%. In the case of O=S(=O)(Cc1ccccc1)Nc1ccccc1Br, the “hERG current change (%, negative = inhibition) at 10uM” value is reported as 17.3%. With O=C1C=C(/C=C/c2ccccc2)C[C@@H](c2ccc3c(c2)OCO3)C1 the “hERG current change (%, negative = inhibition) at 10uM” value was 20%. Cc1ccc(C(=O)OCC(=O)NCc2cccs2)cc1S(=O)(=O)N1CCOCC1 was tested, and the “hERG current change (%, negative = inhibition) at 10uM” value was -4%. In the case of O=C(COC(=O)c1ccc(Cl)nc1)NNC(=O)c1ccc(Br)cc1, the “hERG current change (%, negative = inhibition) at 10uM” value is reported as -0.746%. In the case of Cc1ccnc(NC(=O)CNC(=O)c2ccc(Br)o2)c1, the “hERG current change (%, negative = inhibition) at 10uM” value is reported as -2.64%. O=C(COc1ccc(F)cc1)Nc1cc(S(=O)(=O)N2CCCCC2)ccc1N1CCCCC1 was tested, and the “hERG current change (%, negative = inhibition) at 10uM” value was 9.98%. With COc1ccc(CCNC(=O)c2cc(-c3ccco3)on2)cc1OC the “hERG current change (%, negative = inhibition) at 10uM” value was -15%. For S=C(CN1CCCC1=S)N1CCOCC1, the “hERG current change (%, negative = inhibition) at 10uM” value was 17.3%. In the case of Cc1occc1C(=O)NCc1ccccc1, the “hERG current change (%, negative = inhibition) at 10uM” value is reported as 9.94%. COc1ccc(C2(O)CCN(C(=O)c3c(F)cccc3F)CC2)cc1 was tested, and the “hERG current change (%, negative = inhibition) at 10uM” value was -2.18%. With COc1ccccc1N1CCN(C/C(C)=C/c2ccccc2)CC1 the “hERG current change (%, negative = inhibition) at 10uM” value was -63.4%. O=c1c2c(-c3ccc([N+](=O)[O-])cc3)csc2nc2n1CCC2 was tested, and the “hERG current change (%, negative = inhibition) at 10uM” value was -77.6%. In the case of COc1ccc(OC)c(S(=O)(=O)n2nnc3cc(Cl)ccc32)c1, the “hERG current change (%, negative = inhibition) at 10uM” value is reported as 4.31%. In the case of CS(=O)(=O)N1CCN(C(=O)Cc2ccccc2Cl)CC1, the “hERG current change (%, negative = inhibition) at 10uM” value is reported as 14.7%. In the case of CC(=O)Nc1ccc(S(=O)(=O)NCC(=O)OCC(=O)N2CCc3ccccc32)cc1, the “hERG current change (%, negative = inhibition) at 10uM” value is reported as 8.99%. CN(C)/C=C/C(=O)c1cccc(C(F)(F)F)c1 was tested, and the “hERG current change (%, negative = inhibition) at 10uM” value was -0.664%. In the case of O=C(Nc1ccccc1F)c1ccc(CSc2ccccc2)o1, the “hERG current change (%, negative = inhibition) at 10uM” value is reported as 0.17%. In the case of COc1ccc(C(=O)Nc2ccc(S(=O)(=O)Nc3cc(C)nc(C)n3)cc2)c(OC)c1, the “hERG current change (%, negative = inhibition) at 10uM” value is reported as -0.751%. For CC(C)N1CCc2[nH]c(=S)[nH]c(=O)c2C1, the “hERG current change (%, negative = inhibition) at 10uM” value was -4.1%. CN(Cc1cccs1)S(=O)(=O)c1cccs1 was tested, and the “hERG current change (%, negative = inhibition) at 10uM” value was -7.71%. With CC(=O)N1N=C(c2cccs2)CC1c1cc2cc(C)ccc2nc1Cl (stereo not shown) the “hERG current change (%, negative = inhibition) at 10uM” value was -0.431%. Cc1ccc(C(C)C)c(OCC(=O)Nc2sc3c(c2C#N)CC(C)(C)NC3(C)C)c1 was tested, and the “hERG current change (%, negative = inhibition) at 10uM” value was 10.1%. In the case of O=C(Nc1ccc(F)c(F)c1)c1cnc(-c2ccccc2)nc1-c1ccccc1, the “hERG current change (%, negative = inhibition) at 10uM” value is reported as -16.7%. With CCCCc1nc2ccccc2c(=O)n1NC(=O)c1c(O)c2cccc3c2n(c1=O)CC3 the “hERG current change (%, negative = inhibition) at 10uM” value was -0.16%. O=C(Nc1ccccc1C(=O)O)c1cc(S(=O)(=O)N2CCOCC2)c(Br)s1 was tested, and the “hERG current change (%, negative = inhibition) at 10uM” value was 17.6%. For COC(=O)C1CCCN1C(=O)COc1ccc(Cl)cc1Br (stereo not shown), the “hERG current change (%, negative = inhibition) at 10uM” value was -6.09%. In the case of CN(C)c1ccc(NC(=S)c2ccccn2)cc1, the “hERG current change (%, negative = inhibition) at 10uM” value is reported as 14.1%.
